Here are results for 1 molecule from article PMC8873214, “RIOX1-demethylated cGAS regulates ionizing radiation-elicited DNA repair” (Bone Research, 2022).

This assay has as its target T1, GST-RIOX1 (mouse, UniProt Q9JJF3 1-603).
T1 construct: ribosomal oxygenase 1 (RIOX1), mouse; only the mouse Riox1 cDNA was cloned; also called purified GST-RIOX1 protein; source: E. coli BL21(DE3), purified
T1 sequence (looked up): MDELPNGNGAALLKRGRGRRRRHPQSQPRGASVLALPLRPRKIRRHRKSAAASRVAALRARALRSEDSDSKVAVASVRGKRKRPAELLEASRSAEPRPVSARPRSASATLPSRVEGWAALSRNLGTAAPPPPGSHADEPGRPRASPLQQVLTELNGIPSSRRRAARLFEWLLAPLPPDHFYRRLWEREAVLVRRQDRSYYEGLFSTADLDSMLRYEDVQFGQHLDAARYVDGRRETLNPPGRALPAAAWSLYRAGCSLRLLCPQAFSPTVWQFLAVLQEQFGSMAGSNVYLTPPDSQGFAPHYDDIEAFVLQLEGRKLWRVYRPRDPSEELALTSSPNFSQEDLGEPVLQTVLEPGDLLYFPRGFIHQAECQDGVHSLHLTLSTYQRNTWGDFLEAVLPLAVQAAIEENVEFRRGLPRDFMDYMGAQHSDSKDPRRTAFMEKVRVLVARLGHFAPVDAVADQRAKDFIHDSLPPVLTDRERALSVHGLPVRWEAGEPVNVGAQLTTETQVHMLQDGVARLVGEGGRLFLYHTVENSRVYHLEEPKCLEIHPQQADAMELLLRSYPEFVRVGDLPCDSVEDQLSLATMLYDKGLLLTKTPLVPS
Description: pull-down; GST pulldown: bacterially purified GST-RIOX1 mixed with purified His-cGAS; immunoblot. To be noted: both partners purified.

B1: His-cGAS (natural protein)
chain: not shown
notes: cyclic GMP-AMP synthase (cGAS), mouse; mouse and human cGAS were both cloned; also called bacterially purified cGAS protein; purified His-cGAS protein; source: E. coli BL21(DE3), purified
Turning to B1, the binding result is listed as “binds”.
